Test results reported in PubChem BioAssay AID2451 (National Center for Advancing Translational Sciences (NCATS), 2010).
Hit rate of the full screen: of about 290,000 compounds, about 2,100 (0.72%) were called active. The shares of active, inactive and inconclusive entries below differ from those in the screen. The call rests on the fitted dose curve; in most records, active means well fitted inhibition curve with a large enough effect; inconclusive means small, poorly fitted or top-dose-only effect, or effect the other way; inactive means flat fitted curve, though single readings scatter. Potencies of inconclusive entries are doubtful fits and often do not repeat.

Each compound was assayed against Fructose-bisphosphate aldolase (Giardia intestinalis (strain ATCC 50803 / WB clone C6)) (UniProt A8B2U2) (assay: qHTS Assay for Inhibitors of Fructose-1,6-bisphosphate Aldolase from Giardia Lamblia). Conditions: purified Giardia FBPA; activity, negative = inhibition: at 59.6 µM (top of the series) unless noted.
Chain of UniProt A8B2U2 (A8B2U2 whole entry, looked up): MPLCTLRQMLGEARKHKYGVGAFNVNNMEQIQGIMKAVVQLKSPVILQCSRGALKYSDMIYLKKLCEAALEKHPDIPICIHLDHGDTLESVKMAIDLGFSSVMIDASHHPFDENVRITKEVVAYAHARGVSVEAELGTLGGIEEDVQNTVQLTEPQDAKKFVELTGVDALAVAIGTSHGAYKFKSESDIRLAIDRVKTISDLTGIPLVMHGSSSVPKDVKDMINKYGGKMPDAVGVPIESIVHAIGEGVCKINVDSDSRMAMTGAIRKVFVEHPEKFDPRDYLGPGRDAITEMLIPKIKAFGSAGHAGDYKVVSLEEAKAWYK
Method in brief: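 40 nM FBPA preincubated 10 min at RT with compound (up to 57.5 uM final), then substrate plus GAPDH/TPI/NAD/arsenate coupling and diaphorase/resazurin added. Fluorescence read after 20 min at RT, 525/598 nm.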
Further: nearly all actives have a fitted effect of over 55% in size.
On the % scale 0 is the no-effect control and ±100 the full control effect; potency means the concentration at half of the fitted maximal effect; tags describe the fitted curve by direction and shape.

Compound | Potency | activity, negative = inhibition
c1ccc(-c2cccc(-c3ccccn3)n2)nc1 | active: 7.92 µM | –
COCCCNCCOc1ccc(C(C)(C)c2ccccc2)cc1 | – | inactive: -14.3%
CN(CCC#N)C(=O)c1cc2c(s1)-c1ccccc1SC2 | – | inactive: -6.21%
CNCCCOc1cc(C)cc(C)c1C | inconclusive: 17.7 µM [inhibitor, single point] | –
CCC(C)[C@H](NC(=O)N1CC(=O)Nc2ccccc21)C(=O)N[C@H](Cc1c[nH]c2ccccc12)C(=O)O (stereo not given in full) | inconclusive: 11.2 µM [inhibitor, partial curve] | –
Cc1nc([N+](=O)[O-])c(C(=O)OCc2ccccc2Br)n1C | – | inactive: 7.3%
Cc1ccc(N(CC2=NCCN2)c2cccc(O)c2)cc1 | inconclusive: 17.7 µM [inhibitor, single point] | –
O=C(N/C(=C\c1ccc(Cl)cc1)C(=O)N1CCOCC1)c1ccc([N+](=O)[O-])cc1 | – | inactive: 11.6%
CCc1nc(SCC(=O)N2CCOCC2)c2c(=O)n(C)c(=O)n(C)c2n1 | inconclusive: 7.06 µM [activator, single point] | –
O=c1c2c([N+](=O)[O-])cc([N+](=O)[O-])cc2sn1-c1ccc(Br)cc1 | inconclusive: 14.1 µM [inhibitor, partial curve] | –
CC(C)c1ccc(NC(=O)Cc2ccc(NC3=NC4CS(=O)(=O)CC4S3)cc2)cc1 (stereo not given) | inconclusive: 25.1 µM [inhibitor, single point] | –
COc1ccc(CNc2ncc(-c3ccc(F)cc3)n2C)c2ccccc12 | inconclusive: 12.6 µM [inhibitor, partial curve] | –
CN1C=CC2=C(C#N)C(N)C(C#N)(C#N)[C@H](c3ccccc3)[C@H]2C1 (stereo not given in full) | inconclusive: 15.8 µM [inhibitor, partial curve] | –
CCN(CC)c1ccc2c(c1)CCCN2 | inconclusive: 5 µM [inhibitor, partial curve] | –
O=C(c1ccc(Cl)cc1)c1ccc(Oc2cc(NN3CCCCC3)c([N+](=O)[O-])cc2[N+](=O)[O-])cc1 | – | inactive: -3.69%
CC1(C)C2CCC(C2)C1(C)NC(=O)CN1CCCC1 (stereo not given) | inconclusive: 5.01 µM [inhibitor, partial curve] | –
Cc1ccc2cc(CNCCc3ccccc3C)c(=O)[nH]c2c1 | inconclusive: 0.891 µM [inhibitor, full curve] | –
CCOCCCn1c(=S)[nH]c2cc(C(=O)N3CCN(C4CCCCC4)CC3)ccc2c1=O | – | inactive: -16.8%
COc1ccc(C2=NC(C)(C)Cc3cc(OC)c(OC)cc32)cc1OC | inconclusive: 17.8 µM [inhibitor, partial curve] | –
CC(C)C1CC(c2ccccc2)(C(CN)CO)CCO1 (stereo not given) | inconclusive: 19.9 µM [inhibitor, partial curve] | –
N#CC1=C(S)N(c2ccc(F)cc2)C2(CCCCC2)NC1=O | inconclusive: 15.8 µM [inhibitor, partial curve] | –
O=c1nccc(N/N=C/c2cccc(O)c2)[nH]1 | inconclusive: 12.6 µM [inhibitor, partial curve] | –
COc1cccc(NC(=S)N(CCCN2CCOCC2)C(C)c2cc3ccccc3o2)c1 (stereo not given) | – | inactive: -3.51%
O=C(NCCO)c1ccc(Cl)c(Cl)c1 | – | inactive: 2.21%
O=C(O)CNC(=S)N(Cc1ccccc1)Cc1ccccc1F | inconclusive: 15.8 µM [activator, single point] | –

Compound | Potency | activity, negative = inhibition
O=C(Nc1ccc2ncccc2c1)c1cccc(Br)c1 | inconclusive: 35.5 µM [inhibitor, single point] | –
Cc1nnc(SCC(=O)NCc2ccc3c(c2)OCO3)[nH]c1=O | inconclusive: 25.1 µM [inhibitor, partial curve] | –
CCNC(=S)N/N=C(\C)c1ccc(N2CCOCC2)cc1 | – | inactive: -16.5%
O=C(c1ccccc1)c1ccc(OCCCN2CCCCC2)cc1 | inconclusive: 17.7 µM [inhibitor, partial curve] | –
COc1ccc(Oc2cnc3ccccc3n2)cc1 | – | inactive: 1.35%
N#CCSc1ccc2nc(-c3ccccc3)cn2n1 | – | inactive: -17.5%
Oc1ccc2ccccc2c1/C=N/Nc1ccccc1 | inconclusive: 17.7 µM [inhibitor, single point] | –
CCn1ccnc1CNC(=O)c1ccc(OC2CCN(C(=O)COC)CC2)cc1 | inconclusive: 31.6 µM [inhibitor, single point] | –
CC(C)CNC(=S)N1CCN(Cc2ccc3c(c2)OCO3)CC1 | inconclusive: 19.9 µM [inhibitor, partial curve] | –
COCCNC(=S)N/N=C(\C)c1cccc([N+](=O)[O-])c1 | inconclusive: 15.8 µM [inhibitor, partial curve] | –
Brc1c(CSc2nc3ccccc3o2)nc2ncccn12 | – | inactive: -9.64%
O=C(CN1CCN(Cc2ccccc2)CC1)N1CCCc2c1c(=O)oc1ccc(O)cc21 | – | inactive: 2.71%
CC(=O)Nc1ccc(S(=O)(=O)Nc2nc3ccccc3nc2Sc2nncn2C)cc1 | inconclusive: 15.8 µM [activator, partial curve] | –
Cc1c(Cl)cccc1Nc1ccccc1C(=O)O | inconclusive: 15.8 µM [activator, single point] | –
Cn1c(CN2CCCC2)nc2cc(NC(=O)c3ccco3)ccc21 | – | inactive: -8.94%
CCC1CCCCN1S(=O)(=O)c1ccc(C(=O)Nc2nnc(-c3cccs3)o2)cc1 (stereo not given) | inconclusive: 25.1 µM [activator, single point] | –
CN1CCc2c1nc1ccccc1c2NC(=O)CN1CCCC1 | active: 17.8 µM | –
O=C(NCCSc1ccc(Cl)cc1)c1ccco1 | – | inactive: -2.48%
CC(=O)c1ccc2cccc3c2c1N=CN3C | inconclusive: 1.58 µM [inhibitor, full curve] | –
Oc1cc2c(cc1O)[C@@H](c1ccccc1)CNCC2 | inconclusive: 19.9 µM [inhibitor, single point] | –
O=C(N/N=C/c1ccccn1)c1cccc(S(=O)(=O)Nc2ccccc2Cl)c1 | active: 15.8 µM | –
COc1ccc(NC(=O)C(NCC(C)C)c2ccccc2)cc1Cl (stereo not given) | active: 14.1 µM | –
CCC(=O)c1ccc(OCC(O)CN2CC(C)OC(C)C2)cc1 (stereo not given) | inconclusive: 20 µM [inhibitor, partial curve] | –
CCCc1cc(=O)n2[nH]c(C(F)(F)F)nc2n1 | inconclusive: 15.8 µM [inhibitor, single point] | –
CC(CNCC1CCCO1)COc1ccccc1 (stereo not given) | inconclusive: 17.7 µM [inhibitor, partial curve] | –

Compound | Potency | activity, negative = inhibition
ONc1cccnc1-n1nc(C(F)(F)F)cc1C(F)(F)F | inconclusive: 17.7 µM [inhibitor, partial curve] | –
CC(C)c1ccc(C2NC(=O)NC3=C2CCc2ccccc23)cc1 (stereo not given) | inconclusive: 17.7 µM [inhibitor, single point] | –
Cc1nc2ccccc2n1CC(O)COc1ccccc1Cl (stereo not given) | – | inactive: -7%
CCOc1ccc(NC(=O)CC(NCc2ccccn2)C(=O)O)cc1 (stereo not given) | active: 5 µM | –
N#CC1=C(N)N2C(=C(C#N)C1c1ccc(Br)cc1)Nc1ccccc12 (stereo not given) | – | inactive: 0.698%
CC1(C)COC(c2cc([N+](=O)[O-])ccc2Cl)=N1 | – | inactive: 1.5%
CCOc1ccc(C(=O)CCN2CCOCC2)cc1 | inconclusive: 39.8 µM [inhibitor, single point] | –
CCC1Cc2c(nc(N)c3c(N)nc(N4CCOCC4)c(C#N)c23)O1 (stereo not given) | inconclusive: 19.9 µM [inhibitor, partial curve] | –
CCc1ncc(C)[nH]1 | inconclusive: 28.2 µM [inhibitor, single point] | –
CCOc1cc(CNc2ccc3[nH]c(=O)[nH]c3c2)ccc1OCC(=O)NC(C)(C)C | inconclusive: 8.89 µM [inhibitor, partial curve] | –
O=C(C1=C(O)C(=O)N(c2ncccn2)C1c1cccs1)c1ccco1 (stereo not given) | inconclusive: 15.8 µM [inhibitor, partial curve] | –
CCOC(=O)C1=C(C)OC(N)=C(C#N)C1c1cncc(-c2ccc(F)cc2)c1 (stereo not given) | inconclusive: 17.7 µM [inhibitor, single point] | –
CCC(C)NCCOCCOc1ccc(C)cc1Br (stereo not given) | inconclusive: 22.3 µM [inhibitor, partial curve] | –
CCOc1cc(CN2CCN(C(=O)c3cccc4ccccc34)CC2)ccc1OC | inconclusive: 20 µM [inhibitor, partial curve] | –
COc1ccc(NC(=O)CC(C)CC(=O)NCc2ccc(F)cc2)c(OC)c1 (stereo not given) | – | inactive: 1.77%
CCn1ccc2cc(OC)ccc2c1=S | inconclusive: 25.1 µM [inhibitor, single point] | –
O=C(CSc1nnc(Cc2cccs2)n1Cc1ccco1)Nc1ccc(Cl)cc1Cl | – | inactive: 13.6%
CCOC(=O)c1cnc2c(Cl)c(Cl)ccc2c1NCCN1CCOCC1 | – | inactive: -10.9%
S=C(Nc1cccnc1)Nc1ccccn1 | inconclusive: 28.2 µM [inhibitor, partial curve] | –
CC1CC=C2C(C#N)=C(N)C(C#N)(C#N)C(c3cccs3)C2C1 (stereo not given) | inconclusive: 19.9 µM [inhibitor, partial curve] | –
O=C(NN1C(=O)/C(=C/c2cccs2)SC1=S)c1cccnc1 | inconclusive: 15.8 µM [inhibitor, single point] | –
COc1ccc2nc3ccccc3nc2c1NC(=O)c1ccc(Br)cc1 | inconclusive: 3.54 µM [inhibitor, full curve, poor fit] | –
CCOc1ccc(CCNC(=O)Cc2ccc(NC3=NC4CS(=O)(=O)CC4S3)cc2)cc1 (stereo not given) | inconclusive: 28.2 µM [inhibitor, partial curve] | –
Cc1ccsc1C(=O)Nc1nccs1 | inconclusive: 20 µM [inhibitor, single point] | –
Cc1oc2c(c1C(=O)N1CCC(C)CC1)C(=O)c1ccccc1C2=O | inconclusive: 0.561 µM [inhibitor, full curve] | –
